Source: PubChem BioAssay AID2451 (National Center for Advancing Translational Sciences (NCATS), 2010)
Out of some 290,000 compounds screened, about 2,100 (0.72%) were called active. The shares of active, inactive and inconclusive entries below differ from those in the screen. The call rests on the fitted dose curve; in most records, active means well fitted inhibition curve with a large enough effect; inconclusive means small, poorly fitted or top-dose-only effect, or effect the other way; inactive means flat fitted curve, though single readings scatter. Where the call is inconclusive, the potency comes from a doubtful curve fit.

molecular target: Fructose-bisphosphate aldolase (Giardia intestinalis (strain ATCC 50803 / WB clone C6)) (UniProt A8B2U2); assay: qHTS Assay for Inhibitors of Fructose-1,6-bisphosphate Aldolase from Giardia Lamblia; details: purified Giardia FBPA; series mostly up to 59.6 µM; further: nearly all actives have a fitted effect of over 55% in size
Sequence of UniProt A8B2U2 (A8B2U2 whole entry, looked up): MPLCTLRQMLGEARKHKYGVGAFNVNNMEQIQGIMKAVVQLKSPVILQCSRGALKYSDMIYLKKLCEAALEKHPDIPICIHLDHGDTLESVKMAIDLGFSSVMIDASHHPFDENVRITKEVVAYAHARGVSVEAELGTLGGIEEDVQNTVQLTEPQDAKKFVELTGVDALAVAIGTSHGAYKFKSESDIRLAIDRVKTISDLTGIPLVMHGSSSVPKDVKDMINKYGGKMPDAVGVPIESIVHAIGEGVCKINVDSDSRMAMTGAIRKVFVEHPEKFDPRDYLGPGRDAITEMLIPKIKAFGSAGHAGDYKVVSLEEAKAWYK
Procedure, shortened: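 40 nM FBPA preincubated 10 min at RT with compound (up to 57.5 uM final), then substrate plus GAPDH/TPI/NAD/arsenate coupling and diaphorase/resazurin added. Fluorescence read after 20 min at RT, 525/598 nm.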
Potency means the concentration at half of the fitted maximal effect; tags describe the fitted curve by direction and shape.

| Structure (SMILES) | Potency |
| --- | --- |
| COC(=O)c1cc(OC)c(OC)cc1NC(=O)CN1C(=O)c2ccccc2C1=O | inactive |
| CC(=O)c1cccc(OCC(=O)c2cc(C)n(-c3cc(C)on3)c2C)c1 | inconclusive: 25.1 µM [inhibitor, single point] |
| C=CCN1C(=O)CN=C1Nc1cc(C)ccc1C | inconclusive: 17.7 µM [inhibitor, single point] |
| O=C(N/N=C/C=C/c1ccccc1)c1cccnc1 | inconclusive: 19.9 µM [inhibitor, single point] |
| CCCn1c(O)c(N=NC(=O)c2ccco2)c2ccccc21 | inconclusive: 22.3 µM [inhibitor, single point] |
| Cc1cc(O)c(/C=N/c2ccccn2)c(=O)o1 | inconclusive: 19.9 µM [inhibitor, single point] |
| Oc1c(I)cc(Cl)c2cccnc12 | inactive |
| CCOc1ccc(/C=N/O)cc1 | inactive |
| O=c1c(-c2ccco2)[n+]([O-])c2ccccc2n1OCc1ccccc1 | inconclusive: 17.7 µM [inhibitor, single point] |
| CNC(=O)NC(=S)NC(=O)c1cccc(Cl)c1 | inconclusive: 15.8 µM [inhibitor, partial curve] |
| O=Cc1ccc2oc3nc4n(c(=O)c3c(=O)c2c1)CCCS4 | inconclusive: 15.8 µM [inhibitor, single point] |
| COc1ccc2nc(N3CCCC(O)C3)c(C#N)cc2c1 (centres undefined) | inconclusive: 15.8 µM [inhibitor, partial curve] |
| CC1CC(C)CN(CCCNC(=O)COc2cc(=O)n(C)c3ccccc23)C1 (centres undefined) | inactive |
| COc1ccc(NC(=O)c2cc3ccccc3o2)cc1OC | inactive |
| Nc1nc(N2CCCCC2)c(C=O)c(N2CCCCC2)n1 | inconclusive: 17.7 µM [inhibitor, partial curve] |
| C=CC(C1=CC(=O)C(OC)=CC1=O)c1ccc(OC)cc1 (centres undefined) | active: 19.9 µM |
| O=C(CSc1nc2ccccc2[nH]1)c1ccco1 | inconclusive: 19.9 µM [inhibitor, single point] |
| Cc1ccc(C(=O)CNc2ccccc2)cc1 | inactive |
| CSc1nsc(NC(=O)OCc2ccc(Cl)cc2)n1 | inconclusive: 28.2 µM [inhibitor, partial curve] |
| Cc1ccc(S(=O)(=O)/N=C2\C=C(Nc3cccc(C(=O)O)c3)C(=O)c3ccccc32)c(C)c1 | inconclusive: 0.708 µM [inhibitor, full curve] |
| O=C(Nc1ccc2c(c1)OCO2)Nc1cnccn1 | inactive |
| COC(=O)c1ccccc1NC(=O)N1CSC[C@H]1C(=O)OC | inactive |
| Cc1[nH]c2ccccc2c1/C=N/Nc1nncn1N | active: 12.6 µM |
| CC1(C)CC(=O)C2=C(C1)Nc1ccccc1N=C2 | inconclusive: 3.97 µM [inhibitor, full curve] |
| CCN1CCN(C(=O)C(C)Nc2ccc(OC)cc2OC)CC1 (centres undefined) | inconclusive: 1.58 µM [inhibitor, full curve, poor fit] |

| Structure (SMILES) | Potency |
| --- | --- |
| C=CCN1C(=O)C2(c3ccccc31)C1CCCC=C1C(C#N)=C(N)C2(C#N)C#N (centres undefined) | inconclusive: 2.82 µM [inhibitor, full curve] |
| Cc1[nH]n(C(N)=S)c(=O)c1N=Nc1ccc(S(=O)(=O)N2CCCC2)cc1 | inconclusive: 17.7 µM [activator, single point] |
| COc1ccc(-c2oc3c(CC=C(C)C)c(O[C@H]4OC(CO)C(O)C(O)C4O)cc(O)c3c(=O)c2O[C@@H]2OC(C)C(O)C(O)C2O)cc1 (some centres undefined) | inactive |
| CC(NC(=O)c1ccc(CS(=O)(=O)Cc2ccccc2F)o1)c1ccc2c(c1)OCCO2 (centres undefined) | inactive |
| CCOC(=O)C1=C(O)C(=O)N(c2ccc(S(N)(=O)=O)cc2)C1c1ccccc1 (centres undefined) | inactive |
| Oc1ccccc1CN1CCCC(N2CCN(c3cccc(C(F)(F)F)c3)CC2)C1 (centres undefined) | inactive |
| CCOc1ccc2c(c1)C(C)=CC(C)(C)N2C(=O)Nc1ccccc1 | inconclusive: 8.89 µM [inhibitor, partial curve] |
| Cc1[nH]c2ccccc2c1C(=O)CSc1nc2ncc(Cl)cc2[nH]1 | inactive |
| Cc1nc2ccccc2c(=O)n1/N=C/c1ccccc1 | inactive |
| Cc1ccc(-c2csc(N3CCC[C@@H]3C(=O)NCCn3c(C(F)(F)F)nc4ccccc43)n2)cc1 | inconclusive: 25.1 µM [inhibitor, partial curve, poor fit] |
| Clc1cccc(CNCC2CCCO2)c1Cl (centres undefined) | inconclusive: 28.2 µM [inhibitor, single point] |
| CCn1c(C)nc2cc(C(=O)NNC(=S)NC(=O)c3ccc(OC)cc3)ccc21 | inconclusive: 17.7 µM [activator, single point] |
| CCN1CC=C2C(C#N)=C(N)C(C#N)(C#N)[C@H](c3cccc(OC)c3OC)[C@H]2C1 | inconclusive: 15.8 µM [inhibitor, single point] |
| Cc1ccc(/C=C2/C(=O)ON=C2c2ccccc2)o1 | inconclusive: 15.8 µM [inhibitor, single point] |
| c1ccc(-c2[nH]ncc2-c2nc3ccccc3[nH]2)cc1 | inconclusive: 25.1 µM [inhibitor, single point] |
| CC(=O)N1CCN(C(=O)CSc2nc3c(cnn3-c3ccccc3)c(=O)[nH]2)CC1 | active: 39.8 µM |
| CC(=O)NC(c1ccc(C)cc1)c1cc([N+](=O)[O-])c2cccnc2c1O (centres undefined) | inconclusive: 5 µM [inhibitor, single point] |
| Cc1cccc(NC(=O)c2nc[nH]c2C(=O)N[C@@H](CCCCNC(=O)OC(C)(C)C)C(=O)OC(C)(C)C)c1 | inconclusive: 44.6 µM [inhibitor, single point] |
| C/C=C1\COC(C(=O)NCc2cccc(OC)c2OC)(C(F)(F)F)C=C1C=C(C)C (centres undefined) | inactive |
| Cc1[nH]n(-c2ccccc2)c(=O)c1N=Nc1cccc([N+](=O)[O-])c1 | active: 8.91 µM |
| COc1ccccc1CN(C)CC(=O)Nc1cccc2ccccc12 | inactive |
| CCOC(=O)N1CCN(C(=O)c2cn(C)c(=O)c3c2c2ccccc2n3C)CC1 | inconclusive: 7.06 µM [activator, single point] |
| O=C(CNCc1ccc(Cl)cc1)Nc1ccc(C(=O)N2CCCCC2)cc1 | inconclusive: 14.1 µM [inhibitor, single point] |
| Cc1cc(C(=O)Nc2nnc(C(F)(F)F)s2)cs1 | inconclusive: 19.9 µM [inhibitor, partial curve] |
| CCCn1nnc(NC(=S)NC(=O)C(C)(C)C)n1 | active: 5.61 µM |

| Structure (SMILES) | Potency |
| --- | --- |
| C=CCn1c(=O)c2ccccc2n2c(SCC(=O)N(C)C)nnc12 | inconclusive: 20 µM [inhibitor, partial curve] |
| C=CCc1cc(Cl)ccc1OCCOCCN(C)C | inconclusive: 17.7 µM [inhibitor, partial curve] |
| COc1cc([N+](=O)[O-])ccc1NC(=O)CN1CCc2cc(OC)c(OC)cc2C1 | inconclusive: 25.1 µM [inhibitor, partial curve] |
| Cn1nnnc1SCc1ccc(C(=O)Nc2nccs2)cc1 | inactive |
| Cc1ccc(S(=O)(=O)NNC(=S)Nc2ccccc2)cc1 | inconclusive: 28.1 µM [inhibitor, single point] |
| O=C(CSc1nnc2ncccn12)Nc1cccc2ccccc12 | inactive |
| Cn1cc(CNC(=O)c2sc3cccc(Cl)c3c2Cl)cn1 | inactive |
| Cc1ccc(OCCCCn2ccnc2C)c(C)c1 | inconclusive: 7.06 µM [inhibitor, partial curve] |
| NC(=O)C1CCN(C2=C(NS(=O)(=O)c3ccc(Br)cc3)C(=O)c3ccccc3C2=O)CC1 | inconclusive: 12.6 µM [inhibitor, partial curve] |
| CC(C)N(N=Nc1ccc([N+](=O)[O-])cc1)C(C)C | inactive |
| O=C(c1ccco1)[C@@H]1[C@@H]2C(=O)N(c3ccc(F)cc3)C(=O)[C@@H]2[C@H]2C=Cc3ccccc3N21 | inconclusive: 17.7 µM [inhibitor, partial curve] |
| CC1CN2C(c3ccc([N+](=O)[O-])cc3)=CSC2=N1 (centres undefined) | inconclusive: 20 µM [inhibitor, single point] |
| COCCNC(=O)CN(C(=O)Cn1nnc2ccccc21)c1cc(C)cc(C)c1 | inactive |
| COc1ccc(OC)c2c(C)cc(NCCN3CCOCC3)nc12 | inconclusive: 44.6 µM [inhibitor, single point] |
| O=c1c2c(-c3ccccc3)ccnc2[nH]n1-c1ccccc1 | inconclusive: 17.8 µM [inhibitor, partial curve] |
| O=C1CC(Sc2ncn[nH]2)C(=O)N1c1ccccc1 (centres undefined) | inconclusive: 7.06 µM [inhibitor, partial curve] |
| CC(C)(C)c1cc(C2=CSC3=NCCN23)cc(C(C)(C)C)c1O | inconclusive: 31.6 µM [inhibitor, single point] |
| Cc1cc(C(=O)CNCc2ccco2)c(C)n1-c1ccc(F)cc1 | inconclusive: 15.8 µM [inhibitor, partial curve] |
| O=C(CSc1cn(CC(=O)N2CCOCC2)c2ccccc12)N1CCOCC1 | inactive |
| Cc1cc(C)nc(SCCCNCc2ccccc2)n1 | inconclusive: 39.8 µM [inhibitor, single point] |
| Cc1nc2ccccn2c1-c1ccnn1S(=O)(=O)c1ccc(F)cc1 | inconclusive: 14.1 µM [inhibitor, partial curve] |
| CCCOc1ccc(C(=O)NC(=S)Nc2nc3ccccc3s2)cc1 | inconclusive: 17.7 µM [inhibitor, partial curve] |
| O=C(Nc1nc(-c2cccs2)cs1)c1ccc(S(=O)(=O)N2CCCCC2)cc1 | inactive |
| Cc1cc(C)cc(NC(=O)CN2CCc3ccccc3C2)c1 | inconclusive: 15.8 µM [inhibitor, partial curve] |
